Some of the results follow. The main result of the screen is listed elsewhere. These columns were measured beside it and carry no call. The list favours compounds with an active or inconclusive main result.

For orientation: inhibition means the drop in the measured response relative to a control, in per cent.

The test addresses Runt-related transcription factor 1 (Homo sapiens) + Core-binding factor subunit beta (Homo sapiens) (UniProt Q01196+Q13951). In words: inhibitors of RUNX1 Runt–CBFb-SMMHC binding, primary screen, biochemical, FRET, Cerulean-Runt, Venus-CBFb-SMMHC, uHTS (AID 1434).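 Note: 0% = DMSO wells and 100% = wells with excess untagged CBFb-SMMHC; inhibitors lower the FRET ratio by blocking Runt binding to CBFb-SMMHC.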 To be noted: Cerulean-Runt/Venus-CBFb-SMMHC FRET ratio 530/480, 1 h; retest duplicate average; at 20 µM; stronger effect = higher value.
Sequence of UniProt Q01196 (Q01196 whole entry, looked up): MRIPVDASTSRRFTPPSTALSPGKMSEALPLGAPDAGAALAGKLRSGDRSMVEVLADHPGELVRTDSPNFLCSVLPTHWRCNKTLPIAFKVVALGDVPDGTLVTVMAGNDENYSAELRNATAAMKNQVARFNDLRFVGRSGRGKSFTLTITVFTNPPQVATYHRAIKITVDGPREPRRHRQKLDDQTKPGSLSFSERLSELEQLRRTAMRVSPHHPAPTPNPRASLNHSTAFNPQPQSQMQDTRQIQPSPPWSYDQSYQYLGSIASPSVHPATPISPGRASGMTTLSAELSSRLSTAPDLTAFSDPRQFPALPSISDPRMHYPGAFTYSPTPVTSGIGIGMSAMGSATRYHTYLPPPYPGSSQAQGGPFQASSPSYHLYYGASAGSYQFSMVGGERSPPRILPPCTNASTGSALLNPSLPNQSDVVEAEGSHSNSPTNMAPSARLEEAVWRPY
Sequence of UniProt Q01196 (Q13951 whole entry, looked up): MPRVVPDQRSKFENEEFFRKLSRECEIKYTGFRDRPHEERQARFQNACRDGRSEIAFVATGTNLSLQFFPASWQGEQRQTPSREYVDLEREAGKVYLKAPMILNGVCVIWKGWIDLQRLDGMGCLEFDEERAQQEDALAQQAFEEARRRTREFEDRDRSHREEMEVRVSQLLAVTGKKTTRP
In the case of `Cc1ncc(CO)c(/C=N/NC(=O)c2cc3c(s2)CCCC3)c1O`, the inhibition was 70.6%.
In the case of `COc1cc(OC)c(C2CC(=O)N3CN(c4ccccc4)CSC3=C2C#N)cc1OC` (configuration not stated), the inhibition turned out to be 144%.
Regarding `CCCn1c(C)cc(C(=O)CN2C(=O)c3cccc(N)c3C2=O)c1C`, the inhibition worked out at 72.9%.
As for `COCCCNC(=O)c1c(N)n(/N=C/c2cccs2)c2nc3ccccc3nc12`, the inhibition was 104%.
`COc1ccc(OCCn2cc(/C=C(\C#N)C(=O)NCc3ccco3)c3ccccc32)cc1`: the inhibition is 67%.
On to `CNCC(=O)N(CC(C)C)c1c(N)n(CC(C)C)c(=O)[nH]c1=O`, for which the inhibition was 56.9%.
With `N=c1oc2ccc3ccccc3c2cc1C(N)=S`, the inhibition amounted to 80.8%.
As for `O=c1oc2cc(O)ccc2c2oc3cc(O)ccc3c12`, the inhibition was found to be 59.7%.
The result for `Cc1cc(=O)oc2cc(NS(=O)(=O)c3ccccc3)ccc12` reads 97.6%; that for `Cc1cccnc1Nc1nc(-c2ccc(O)c(O)c2)cs1`, 55%.
As for `O=C1CCCC2=C1C(c1ccc(Br)cc1)c1c([nH]c(=S)[nH]c1=O)N2` (configuration not stated), the inhibition came out at 56.9%.
With `N=c1oc2cc(O)ccc2cc1C(=O)Nc1ccccn1` the figure was 70.6%; with `COC(=O)c1ccc2[nH]c(C)c(CN3CCCC3)c(=O)c2c1`, 74%; with `CCN(CC)C1=CC2=CC(=C(C#N)C#N)CCC2CC1` (configuration not stated), 71.5%.
Regarding `CCOC(=O)COc1ccc2c(C#N)c3ccccn3c2c1`, the inhibition was found to be 70.6%.
Regarding `COc1ccc(-c2cc(C(F)(F)F)c(C#N)c(=O)[nH]2)cc1`, the inhibition turned out to be 134%.
Consider `CCCCn1c(=O)nc2n(-c3ccc(Cl)cc3)c3ccccc3cc-2c1=O`, for which the inhibition was 93.2%.
The result for `COc1ccc(C2c3ccc(O)cc3Oc3ncn4nc(-c5ccccn5)nc4c32)cc1` (configuration not stated) reads 91.9%; that for `C=CCN(CC=C)c1nc2ccccc2nc1C(C#N)C(=O)OC(C)C` (configuration not stated), 77.3%.
For the molecule `O=c1[nH]c2ccccc2c(O)c1O`, the inhibition was found to be 51.1%.
For the molecule `COc1ccc(C(=O)/C=C/Nc2ccc(S(=O)(=O)Nc3nc(C)cc(C)n3)cc2)cc1OC`, the inhibition worked out at 96.8%.
Turning to `Cn1cc(/C=N\O)nc2c(=O)n(-c3ccccc3)c(=O)nc1-2`, the inhibition was determined as 99.4%.
Take `O=C(Oc1cc2oc(=O)c3c(c2cc1Cl)CCCC3)c1ccco1`: the inhibition came to 128%.
The result for `COC(=O)C1=CNC=C(C(=O)OC)C1c1ccc(C(=O)OC)cc1` reads 79.2%.
`CCCCNC(=O)c1cc2c(=O)n3cccc(C)c3nc2n(Cc2ccncc2)c1=N`: the inhibition is 71.5%.
With `N#CC(C#N)=C1C=C2C=C(N3CCOCC3)CCC2CC1` (configuration not stated), the inhibition came to 70.6%.
With `N#Cc1cc2cc3c(cc2nc1N1CCCCC1)OCCO3` the figure was 108%; with `N#CC1=C(N)Oc2cc(N)ccc2C1C1CCCCC1` (configuration not stated), 122%; with `CCOC(=O)C1CCCN(C(=O)Cn2sc3nc(C)cc(C)c3c2=O)C1` (configuration not stated), 53.5%.
Consider `Cc1c(C)c2cc(Cl)c(O)c(CN3CCCCC3)c2oc1=O`, for which the inhibition came to 80.7%.
With `CCCCn1nc(C(=O)Oc2ccc3c(C)cc(=O)oc3c2)c2ccccc2c1=O`, the inhibition came to 62.4%.
As for `CCc1cc2c(COC(=O)c3c(C)noc3C)cc(=O)oc2cc1O`, the inhibition came to 108%.
In the case of `Cc1csc2c(=O)sc(NC(=O)c3ccco3)nc12`, the inhibition is 76%.
Take `CCN(CC)c1ccc2cc(-c3nc4ccccc4[nH]3)c(=O)oc2c1`: the inhibition turned out to be 71.5%.
With `COc1ccc(CNC(=O)c2cc3c(=O)n4ccccc4nc3n(Cc3cccnc3)c2=N)cc1`, the inhibition was 160%.
On to `O=C(O)c1ccc(N=c2oc3cc(O)ccc3cc2C(=O)NCc2ccccc2)cc1`, for which the inhibition worked out at 70.6%.
Consider `Cc1csc(NC(=O)c2cc(=O)[nH]c3ccccc23)n1`, for which the inhibition is 87.1%.
Take `N=c1c(C(=O)NCc2ccco2)cc2c(=O)n3ccccc3nc2n1Cc1ccccc1`: the inhibition is 72.9%.
`O=C(Oc1cc2oc(=O)c3c(c2cc1Cl)CCCC3)c1cccs1`: the inhibition amounted to 134%.
With `Cc1ccc(-n2sc3ccccc3c2=O)cc1` the figure was 50.2%.
The result for `CCN1CCN(Cc2c(O)c(Cl)cc3c(C)cc(=O)oc23)CC1` reads 153%.
As for `Cc1ccc2nc3c(cc2c1)c(NC(=O)c1ccccn1)nn3CC(C)C`, the inhibition is 91.2%.
With `CCc1cc(=O)oc2c(C)c(O)c(CN(C)C)cc12` the figure was 55.1%.
The result for `Cc1c(C(=O)O)cccc1-n1c(C)cc(C=O)c1C` reads 68.6%.
`Cc1csc(NC(=O)c2cc(=O)[nH]c3ccc(S(=O)(=O)N4CCOCC4)cc23)n1`: the inhibition amounted to 166%.
For `COCCNc1c2c(c(C#N)c3nc4ccccc4n13)CCCC2`, the inhibition was determined as 72%.
Take `CCN(CC)c1nc2ccccc2nc1C(C#N)C(=O)NCCc1ccccc1` (configuration not stated): the inhibition came out at 83.5%.
`CC1=C(C(=O)Nc2cc(C)ccn2)C(c2ccc(C)cc2)C2=C(CCCC2=O)N1` (configuration not stated): the inhibition was 56.1%.
Regarding `N#Cc1c(N)n(CCOC(=O)c2cccc(Br)c2)c2nc3ccccc3nc12`, the inhibition turned out to be 99.5%.
For the molecule `O=c1[nH]c(C(Cl)Cl)nc2sc3c(c12)CCN(Cc1ccccc1)C3`, the inhibition came to 71.5%.
On to `Cc1cccc(/C=N/c2sc3c(c2C#N)CCN(Cc2ccccc2)C3)c1O`, for which the inhibition is 124%.
On to `Cc1cc(-n2c(=O)c(C#N)cc3c(=O)n4ccccc4nc32)no1`, for which the inhibition was found to be 72.9%.
As to `COc1cccc(C(=O)Nc2sc3c(c2C#N)CCN(C(C)=O)C3)c1`, the inhibition amounted to 75.5%.
As to `CC1CCCCC1NC(=O)COC(=O)c1c2c(nc3ccccc13)/C(=C/c1ccco1)CC2` (configuration not stated), the inhibition worked out at 142%.
Regarding `Oc1c(Cl)cc(Cl)cc1/C=N/NC(=S)NC1CC2C=CC1C2` (configuration not stated), the inhibition was found to be 70.6%.
With `CCOC(=O)c1cc2c(=O)n3ccccc3nc2n(CC2CCCO2)c1=NC(=O)/C=C/c1ccccc1` (configuration not stated) the figure was 79%.
In the case of `COc1ccc(C(=O)c2cc3ccc(O)cc3oc2=O)cc1`, the inhibition amounted to 162%.
For `COCCCn1c(=NC(=O)c2ccccc2)c(C#N)cc2c(=O)n3cccc(C)c3nc21`, the inhibition amounted to 70.6%.
In the case of `Cc1ccc(C)c(OCCn2cc(/C=C(\C#N)C(=O)NCc3ccco3)c3ccccc32)c1`, the inhibition stood at 71.4%.
With `CCN(CC)c1ccc(-c2c(C#N)c(N)nc(OC)c2C#N)cc1`, the inhibition amounted to 88.9%.
`CN1CC=C2C(C#N)=C(N)C(C#N)(C#N)C(c3cccc(Cl)c3Cl)C2C1` (configuration not stated): the inhibition is 76.9%.
Consider `Cc1cccc(S(=O)(=O)c2c(N)n(Cc3ccco3)c3nc4ccccc4nc23)c1`, for which the inhibition was -5.4%.
As for `Cc1cc(C)c2c(N)c3ccccc3nc2n1`, the inhibition was 72.9%.
Take `CCC(=O)N(C)/C=C1\Sc2ccccc2C1=O`: the inhibition came to 68.2%.
As to `CSc1nsc2nc(=O)c(/C=C3\C=Nc4ccccc43)c(N)n12`, the inhibition is 53.1%.
For `CN1CCc2c(sc3c2C(=O)NC(c2cn(Cc4ccccc4)c4ccccc24)N3)C1` (configuration not stated), the inhibition came out at 118%.
As for `CCN(CC)c1ccc2c(C)c(-c3ccc(N)cc3)c(=O)oc2c1`, the inhibition worked out at 71.7%.
With `CNC(=O)/C(C#N)=C/c1c(N(Cc2ccccc2)Cc2ccccc2)nc2c(C)cccn2c1=O`, the inhibition is 69.1%.
As for `Nc1c(C(=O)NCc2ccccc2)c2nc3ccccc3nc2n1CCCN1CCOCC1`, the inhibition was 71.5%.
`CC(C)N1CC=C2C(C#N)=C(N)C(C#N)(C#N)[C@H](c3ccoc3)[C@H]2C1`: the inhibition was found to be 90.4%.
As for `COC(=O)c1ccc(C2C(C#N)=C(C)NC3=C2C(=O)CC(C)(C)C3)cc1` (configuration not stated), the inhibition was 77.7%.
With `C=CCOc1ccc(C2C(C#N)=C(N)N(Nc3ccccc3)C3=C2C(=O)CCC3)cc1OC` (configuration not stated) the figure was 128%.
Turning to `C=CCn1c(N)c(C(=O)OC(C)(C)C)c2nc3ccccc3nc21`, the inhibition came out at 138%.
In the case of `COc1ccc(N=c2oc3cc(O)ccc3cc2C(=O)Nc2ccccn2)cc1OC`, the inhibition worked out at 70.6%.
Regarding `COCCCn1c(=NC(C)=O)c(C#N)cc2c(=O)n3cccc(C)c3nc21`, the inhibition was found to be 70.6%.
The result for `CC(=O)NCCN=Cc1sc2ccccc2c1O` reads 69.2%; that for `COCCCNC(=O)c1c(N)n(-c2ccccc2)c2nc3ccccc3nc12`, 70.6%.
For `Cc1cccc2cc(C#N)c(NCCCn3ccnc3)nc12`, the inhibition is 96%.
In the case of `N#Cc1c(-c2ccc(Cl)cc2)c2c([nH]c1=O)-c1ccccc1OC2`, the inhibition is 70.6%.
Consider `CCCCc1c(C)c(C#N)c2nc3ccccc3n2c1Nc1c(C)n(C)n(-c2ccccc2)c1=O`, for which the inhibition came out at 67.9%.
`Cc1c(O)ccc2c3c(c(=O)oc12)CCCC3`: the inhibition was found to be 127%.
With `CN1CCc2cccc3c2[C@H]1Cc1ccc(O)c(O)c1-3` the figure was 76.8%; with `COCCn1c(-c2ccco2)nc2nc3ccccc3nc21`, 64.7%; with `C=CCNC(=O)C(C#N)c1nc2ccccc2nc1N1CCCCCC1` (configuration not stated), 86.3%.
The result for `CCOC(=O)c1cc2c(=O)n3ccccc3nc2n(CCCOC)c1=NC(=O)c1cccnc1` reads 173%; that for `CCOC(=O)Nc1c2ccccc2nc2ccccc12`, 123%.
With `CCn1nc(NC(=O)c2ccccc2)c2cc3cccc(C)c3nc21` the figure was 108%.
Consider `CC(C)C1OC2(C)OC(=N)C1(C#N)C(C#N)(C#N)C2c1ccccc1` (configuration not stated), for which the inhibition was 71.5%.
With `O=c1oc2c(CN3CCOCC3)c(O)ccc2c2c1CCC2` the figure was 62.3%; with `Cn1c(C(=O)NCc2ccccn2)cc2c(=O)n3ccccc3nc21`, 73.8%; with `CCCc1cc(N2CCN(C(=O)c3ccco3)CC2)n2c(nc3ccccc32)c1C#N`, 64.1%.
Take `CCc1ccc(C2C3=C(CC(C)(C)CC3=O)Nc3c2c(=O)[nH]c2nc(C)nn32)cc1` (configuration not stated): the inhibition was 146%.
With `COc1cc(/C=N/N2CCN(C3c4ccccc4-c4ccccc43)CC2)cc(OC)c1O` the figure was 57.9%.
For `CCOc1ccc2nc(NCCNC(=O)CC)c(C#N)cc2c1`, the inhibition was 68.3%.
With `COc1cc(/C=C(\C#N)C(=O)NC(C)C)cc(Cl)c1O` the figure was 72%.
Regarding `COCCN(C(=O)CN1CCc2ccccc2C1)c1c(N)n(Cc2ccccc2)c(=O)[nH]c1=O`, the inhibition was found to be 70.4%.
Consider `O=S(=O)(Nc1ccc(-c2nc3cccnc3s2)cc1)c1ccccc1F`, for which the inhibition was determined as 161%.
For `CCCC1C(C#N)=C(N)Oc2cc(C)n(C)c(=O)c21` (configuration not stated), the inhibition was determined as 123%.
For the molecule `O=C(O)c1cc(-c2ccc(/C=C3\NC(=O)N(c4ccc(Cl)cc4)C3=O)o2)ccc1Cl`, the inhibition is 79.3%.
Take `C=CCc1c(O)c(CC)cc2c(C)cc(=O)oc12`: the inhibition was determined as 70.6%.
Take `Cc1cc(C(=O)O)ccc1-c1ccc(/C=C2\NC(=O)N(Cc3ccc(F)cc3)C2=O)o1`: the inhibition is 72.1%.
With `O=C(/C=C/Nc1nccs1)C(F)(F)Cl` the figure was 80.1%; with `CCCn1nc(NC(=O)c2ccco2)c2cc3cc(C)ccc3nc21`, 73.5%; with `CCOCCCn1c(=N)c(C(=O)NCc2ccc3c(c2)OCO3)cc2c(=O)n3ccccc3nc21`, 127%.
In the case of `CCCCNC(=O)c1cc2c(=O)n3cccc(C)c3nc2n(CCN2CCOCC2)c1=N`, the inhibition came out at 83.5%.
The result for `Cc1cccn2c(=O)c3cc(C#N)c(=N)n(CCN4CCOCC4)c3nc12` reads 150%.
Turning to `COc1ccc(C(=O)N=c2c(C#N)cc3c(=O)n4cccc(C)c4nc3n2Cc2ccco2)cc1`, the inhibition was found to be 72.9%.
